This passage reports activation results from PubChem BioAssay AID1346428 (National Center for Advancing Translational Sciences (NCATS), 2018).

The structures appear in SMILES notation. The whole screen tested about 48,000 compounds, of which about 1,200 (2.5%) were called active. Not shown: some 2% with an inconclusive outcome.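 Rule for the calls: active = activation of at least 60% and not above a set upper limit (about 1 call in 100 departs from these limits); inconclusive = activation of 40% to 60%, or above that upper limit; inactive = activation under 40%.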 This is one part of the list.

The experiment has as its target Probable G-protein coupled receptor 32 (Homo sapiens) (UniProt O75388). As to the kind of experiment: qHTS for Agonists of Human Resolvin D1 Receptor DRV1. Note: 0% is about no effect. As to conditions: CHO-K1 GPR32 beta-arrestin PathHunter luminescence, 90 min; at 76.9 µM; stronger effect = higher value; zero percent set by DMSO-only wells. Summed up: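 Readings come from a cell-based beta-arrestin complementation format: CHO-K1 GPR32 stable cells (2,500/well) treated 90 min with compounds, then beta-Gal substrate added for 1 h before chemiluminescence imaging.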
UniProt O75388, sequence (O75388 whole entry, looked up): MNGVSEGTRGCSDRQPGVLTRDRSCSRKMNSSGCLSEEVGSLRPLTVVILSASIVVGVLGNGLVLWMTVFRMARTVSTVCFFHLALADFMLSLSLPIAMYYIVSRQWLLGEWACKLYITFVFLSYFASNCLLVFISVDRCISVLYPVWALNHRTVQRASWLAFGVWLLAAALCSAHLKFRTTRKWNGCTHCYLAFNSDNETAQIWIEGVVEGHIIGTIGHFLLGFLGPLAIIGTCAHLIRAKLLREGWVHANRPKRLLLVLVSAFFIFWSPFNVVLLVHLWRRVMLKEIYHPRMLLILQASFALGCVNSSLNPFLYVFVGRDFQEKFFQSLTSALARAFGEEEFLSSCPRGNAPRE
Regarding `Cc1ccc(C)c(N2CCN(C(=O)Cn3cnc4nc5c(cc4c3=O)CCCC5)CC2)c1`, the activation was inactive: 5.38%.
The figure for `COc1ccccc1C(=O)NC(=O)Nc1ccc(-c2cc(C(F)(F)F)nn2-c2ccccc2)cc1` is inactive: -5.62%; for `CCc1ccc(N(CC)C(=O)c2cn(C)c(=O)c3cc(OC)c(OC)cc23)cc1` it is inactive: -4.77%; for `NS(=O)(=O)c1ccc(N2CCCCS2(=O)=O)cc1` it is inactive: -3.77%.
The value for `CCOc1ccc2c(c1)NC(c1ccc(OCC)c(OCC)c1)=NC(c1ccc(F)cc1)=N2` was inactive: -35%; that for `CCc1ccc(C(=O)c2cn(CC(=O)Nc3ccc4c(c3)OCO4)c3ccc(Cl)cc3c2=O)cc1` was inactive: 34.3%.
The figure for `Cc1ccc(NC(=O)Cn2nc(C(F)(F)F)c3c2CCCC3)cc1` is active: 77.1%; for `CCN(CC)c1ccc(NC(=O)C2CCN(S(=O)(=O)c3c(C)noc3/C=C/c3ccccc3F)CC2)c(C)c1` it is inactive: -22.4%; for `CC(C)(C)C1CCc2c(sc3nc(-c4cc5cc(Cl)ccc5oc4=O)[nH]c(=O)c23)C1` (stereo not given) it is inactive: 2.58%.
Regarding `CCn1c(CNC(=O)c2ccc(OC)cc2)nnc1SCC(=O)Nc1cccc(C)c1`, the activation was inactive: 15.1%.
The figure for `Cc1ccc(S(=O)(=O)N2CCCc3cc(NC(=O)c4ccc(Cl)cc4)ccc32)cc1` is inactive: -10.5%; for `CCOc1ccc(CCNC(=O)c2c3c(nc4ccccc24)C(=O)N(C2CCCCC2)C3)cc1` it is inactive: -0.61%.
In the case of `NC(=S)NCCC[C@H](N)C(=O)O`, the activation is inactive: -3.51%.
Regarding `Cc1ccc(S(=O)(=O)NCCc2nnc3ccc(SCC(=O)Nc4c(C)cc(C)cc4C)nn23)cc1`, the activation was inactive: -9.11%.
`COc1ccccc1NC(=O)c1cc2cc3ccc(OC)c(Cl)c3nc2s1`: the activation is inactive: -2.48%.
On to `COC(=O)c1c(NC(=O)c2cc(=O)c3cc(C)cc(C)c3o2)sc2c1CCC2`, for which the activation was inactive: -3.58%.
Take `CCOC(=O)c1ccc(NC(=O)c2nc(SCc3ccc(F)cc3)ncc2Cl)cc1`: the activation was inactive: -27.7%.
Consider `O=C(NCCc1ccccc1Cl)c1cc2ccccn2n1`, for which the activation was inactive: 4.73%.
Consider `Cc1ccc(CC(=O)NCc2nc(-c3ccccc3)no2)cc1`, for which the activation is inactive: -22.2%.
The value for `CCCCn1c(=O)c2oc3ccccc3c2n(Cc2ccc(C)cc2)c1=O` was inactive: -20.5%.
On to `Cc1cc(SCC(=O)Nc2ccc(F)cc2F)nc(=O)[nH]1`, for which the activation was inactive: -2.06%.
The figure for `COc1ccc2ncc3c(-c4ccc(C)c(C)c4)nn(CC(=O)Nc4ccccc4)c3c2c1` is inactive: -14.6%.
The value for `CCc1ccc(CNC(=O)C2COc3ccccc3C2)cc1` (stereo not given) was inactive: -11.5%; that for `Cc1cccc(CN2C(=O)c3ccccc3S(=O)(=O)c3ccc(C(=O)OCC4CCCO4)cc32)c1` (stereo not given) was inactive: -48.5%.
The figure for `Cc1cccc(C(=O)Nc2cc(-c3ccccc3F)nn2-c2ccccc2)c1` is inactive: 15%; for `CCOc1ccc(C2CC(=O)Nc3c2c(=O)[nH]c2ncnn32)cc1` (stereo not given) it is inactive: -36.3%; for `CCn1c(CNC(=O)c2ccc(OC)cc2)nnc1SCC(=O)Nc1ccc(F)cc1` it is inactive: 28.2%.
As for `CCc1ccc(C(=O)c2cn(CC(=O)Nc3ccc(F)cc3)c3ccc(F)cc3c2=O)cc1`, the activation is inactive: 15.3%.
As for `Cc1ccc(N2CC(NC(=O)C3CCCCC3)CC2=O)cc1` (stereo not given), the activation was inactive: -5.61%.
`CCOC(=O)c1cc(S(=O)(=O)N2CCN(c3ccccc3OC)CC2)[nH]n1`: the activation is inactive: -10.1%.
The figure for `COc1ccc(-c2cc(C(=O)Nc3c(C)nn(Cc4ccccc4C)c3C)no2)cc1` is inactive: 24.2%; for `Cc1cccc(C)c1NC(=O)CC12CCCN1CCC2` it is inactive: -10.2%.
For the compound `COc1cc(NS(=O)(=O)c2cc3[nH]c(=O)[nH]c3cc2C)cc(OC)c1OC`, the activation was inactive: 3.63%.
On to `Cc1ccc(CCNC(=O)c2sc3nc4n(c(=O)c3c2C)CCCC4)cc1`, for which the activation was inactive: -6.27%.
With `COc1ccccc1CNC(=O)c1ccc2c(c1)nc(C)n2-c1cccc(C)c1`, the activation is inactive: -22%.
The value for `Cc1ccc2onc(CNC(=O)N3CCN(c4cc(Cl)ccc4C)CC3)c2c1` was inactive: -31.6%.
The figure for `CC(CNC(=O)c1cc2cc(S(=O)(=O)N3CCCCC3)ccc2n1C)c1ccccc1` (stereo not given) is inactive: -12.7%; for `Cc1ccc2c(c1)-c1c(cnc3cc(-c4ccc(Cl)cc4)nn13)CO2` it is inactive: -8.76%; for `COc1ccc(NC(=O)C(C)N2Cc3ccccc3C2=O)cc1OC` (stereo not given) it is inactive: -5.96%.
As to `COc1ccc(C(C)=O)cc1CSc1nc(NCc2ccccc2)c2ccccc2n1`, the activation is inactive: -29.3%.
Regarding `O=C(O)c1ccc(OCCCOc2ccc(C(=O)O)cc2)cc1`, the activation is inactive: 5.11%.
The value for `Cc1ccc2c(c1)c(=O)c1ccccc1n2CCCC(=O)Nc1ccc(C)c(C)c1` was inactive: -1.67%; that for `CC(C)CC(=O)n1nc(-c2ccco2)nc1NCc1ccc(Cl)cc1` was inactive: 5.66%.
The value for `Cc1ccc(COC(=O)c2[nH]c3c(c2C)C(=O)CC(c2ccc(Cl)cc2)C3)cc1` (stereo not given) was inactive: 7.3%; that for `CC(C)OC(=O)c1ccc(NC(=O)CSc2nc(-c3cccs3)cc(C(F)(F)F)n2)cc1` was inactive: -22.4%.
The value for `CCOC(=O)c1cnc2ccc(OCC)cc2c1NCCc1ccc(OC)c(OC)c1` was inactive: -10.1%; that for `CCOc1ccc(S(=O)(=O)NCc2cccn2Cc2cccc(C)c2)cc1` was inactive: -42.8%.
With `Cc1ccccc1C(=O)Nc1ccc(C(=O)N2CCCC(O)c3cc(Cl)ccc32)c(C)c1` (stereo not given), the activation is inactive: -1.94%.
The figure for `CC(C)COc1ccc(C(=O)N(Cc2cccc(F)c2)C2CCS(=O)(=O)C2)cc1` (stereo not given) is inactive: -16.1%; for `CCOC(=O)c1cc(-c2ccccc2)n(-c2cccc(C(=O)NC(C)(C)C)c2)c1C` it is inactive: -22.5%; for `CCCn1c(=N)c(C(=O)NC2CCCCC2)cc2c(=O)n3cc(C)ccc3nc21` it is inactive: 17.3%.
`CCCn1c2ccccc2c2cnn(CC(=O)NCCCOC(C)C)c(=O)c21`: the activation was inactive: -1.32%.
`Cc1ccc(C)c(N2CCN(C(c3ccccc3)c3nnc(-c4ccccc4)o3)CC2)c1` (stereo not given): the activation was inactive: -36.1%.
Regarding `CCc1cccc(C)c1NC(=O)C(NS(=O)(=O)c1ccc2c(c1)CCC(=O)N2)c1ccccc1` (stereo not given), the activation is inactive: -6.28%.
The value for `CCN1CCc2c(sc(-n3cccc3)c2C(CCC(C)C)NC(=O)NCCC(=O)OC)C1` (stereo not given) was inactive: -24.6%.
